Assay results reported in PubChem BioAssay AID1645882 (National Center for Advancing Translational Sciences (NCATS), 2021).
In all, about 16,000 compounds went through this assay and about 120 (0.75%) were called active. Not shown: some 4% with an inconclusive outcome. Calls come from the whole dose curve; as a rule, active = well fitted inhibition curve with a large enough effect; inconclusive = small, poorly fitted or top-dose-only effect; inactive = no such curve, though single readings can be large or run the other way. The list shows a part of the results.

biological target: Rap guanine nucleotide exchange factor 3 (Homo sapiens) (UniProt O95398); test: Validation qHTS for antagonist of cAMP-regulated guanine nucleotide exchange factor 3 (EPAC1); settings: EPAC1 Rap1B-BODIPY-GDP exchange, fluorescence; series mostly up to 150 µM; activity change, negative = inhibition: at the top concentration; note: nearly all actives have a fitted effect of over 75% in size;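 for activity change, negative = inhibition: plate controls were DMSO for no effect and ATA control for full effect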
Sequence of UniProt O95398 (O95398 whole entry, looked up): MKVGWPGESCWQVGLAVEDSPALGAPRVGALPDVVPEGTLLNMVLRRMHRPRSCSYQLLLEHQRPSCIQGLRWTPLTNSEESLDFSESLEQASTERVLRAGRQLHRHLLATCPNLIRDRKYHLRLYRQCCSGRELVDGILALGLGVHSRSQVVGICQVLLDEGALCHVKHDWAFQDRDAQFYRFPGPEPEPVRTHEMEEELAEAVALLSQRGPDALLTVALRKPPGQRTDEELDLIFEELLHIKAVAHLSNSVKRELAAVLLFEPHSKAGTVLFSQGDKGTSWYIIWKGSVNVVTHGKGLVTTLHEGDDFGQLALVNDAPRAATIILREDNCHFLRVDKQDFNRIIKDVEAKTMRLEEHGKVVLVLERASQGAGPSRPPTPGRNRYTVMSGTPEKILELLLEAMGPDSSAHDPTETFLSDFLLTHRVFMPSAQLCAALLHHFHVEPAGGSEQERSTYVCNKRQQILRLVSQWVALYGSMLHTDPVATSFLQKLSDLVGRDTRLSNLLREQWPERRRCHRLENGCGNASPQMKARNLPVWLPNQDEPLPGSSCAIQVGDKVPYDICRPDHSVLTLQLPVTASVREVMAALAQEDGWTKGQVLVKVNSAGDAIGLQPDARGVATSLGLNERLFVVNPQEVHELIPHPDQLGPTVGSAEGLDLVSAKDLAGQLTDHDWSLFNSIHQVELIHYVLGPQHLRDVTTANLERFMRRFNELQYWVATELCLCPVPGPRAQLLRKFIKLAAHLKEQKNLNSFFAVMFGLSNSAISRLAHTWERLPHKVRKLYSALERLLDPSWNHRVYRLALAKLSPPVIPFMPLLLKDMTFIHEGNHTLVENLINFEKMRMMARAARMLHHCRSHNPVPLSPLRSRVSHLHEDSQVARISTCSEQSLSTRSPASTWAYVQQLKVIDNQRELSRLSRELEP
How it was run: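 EPAC1 (100 nM) mixed with 250 nM RAP1B-BODIPY-GDP and 50 uM GDP; compounds in concentration series, 5 min at room temperature. Fluorescence (ex 480/em 540 nm) read every 5 min for 30 min; normalized to ATA control and DMSO.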
Potency is the fitted concentration of half-maximal effect.

| SMILES | activity change, negative = inhibition | Potency |
| --- | --- | --- |
| Cc1ncc2c(c1CNS(=O)(=O)N(C)C)CCN(C(=O)c1[nH]c3ccc(Cl)cc3c1C)C2 | inactive: -1.31% | – |
| CC1=CC2C(CC1=O)C(C)=CCC2C(C)C (stereo not drawn) | inactive: 8.54% | – |
| Cc1csc[n+]1CC(=O)c1ccc(I)cc1 | inactive: -15.2% | – |
| CC(C)C1COc2cc3oc(=O)ccc3cc2O1 (stereo not drawn) | inactive: -1.58% | – |
| COc1ccc(C(=O)N2CCC3(CCCN(C(=O)NC(C)C)C3)CC2)cc1 | inactive: 4.72% | – |
| CN(C)c1ncc2nc(CCc3ccccc3)c(=O)n(Cc3ccc(F)cc3)c2n1 | inactive: 14.1% | – |
| Cc1cnc(CNc2ncncc2-c2ccccc2CN(C)C)cn1 | inactive: -14.9% | – |
| O=C(Cn1cncn1)N1CCOc2ccc(CN3CCN(c4ccccc4)CC3)cc2C1 | inactive: 3.64% | – |
| NC(CSCC(=O)O)C(=O)O (stereo not drawn) | inactive: -5.19% | – |
| O=C(Nc1ccc(/C=C/c2ccc(NC(=O)c3cc(S(=O)(=O)O)c4cccnc4c3O)cc2S(=O)(=O)O)c(S(=O)(=O)O)c1)c1cc(S(=O)(=O)O)c2cccnc2c1O | – | active: 44.7 µM |
| CN(C)Cc1ccccc1-c1ccc2ncnc(N(C)Cc3ccco3)c2c1 | inactive: 1.71% | – |
| COc1ccc(CNc2ncnc3ccc(-c4ccc5c(c4)OCO5)cc23)c(OC)c1 | inactive: -6.95% | – |
| CC(C)[C@@H]1CC[C@@H](C)CC1=O | inactive: 16.2% | – |
| CCOC(=O)/C=C/c1ccc2oc3ccccc3c(=O)c2c1 | inactive: 12.3% | – |
| COC(=O)[C@H](CC(C)C)N(Cc1ccccc1)S(=O)(=O)N(Cc1ccccc1)[C@@H](CC(C)C)C(=O)OC | inactive: -3.82% | – |
| O=c1c(CCc2ccccc2)nc2cncnc2n1C1CC1 | inactive: 1.27% | – |
| CC(C)C[C@H](NC(=O)[C@H](CCCCN)NC(=O)[C@H](CCCNC(=N)N)NC(=O)[C@H](C)NC(=O)[C@H](CO)NC(=O)[C@H](CCCCN)NC(=O)[C@H](CCCNC(=N)N)NC(=O)[C@H](C)NC(=O)CNC(=O)[C@@H](NC(=O)[C@H](Cc1ccccc1)NC(=O)CNC(=O)CNC(=O)[C@@H](N)Cc1ccccc1)[C@H](C)O)C(=O)N[C@@H](C)C(=O)N[C@@H](CC(N)=O)C(=O)N[C@@H](CCC(N)=O)C(=O)O | inactive: -5.17% [at 15.3 µM] | – |
| CCN(Cc1ccncc1)C(=O)[C@@H](CO)c1ccccc1 | inactive: 10.4% | – |
| CN(C)c1ncc2nc(-c3cccs3)c(=O)n(Cc3cccs3)c2n1 | inactive: 25.7% | – |
| CCN(CC)CCOC(=O)c1cccnc1 | inactive: 3.74% | – |
| Oc1cc(-c2nc3ccccc3s2)cc2c1OCCN(Cc1cccn1-c1ccccn1)C2 | inactive: -4.75% | – |
| CCC1(O)CC2CN(CCc3c([nH]c4ccccc34)[C@@](C(=O)OC)(c3cc4c(cc3OC)N(C=O)C3[C@]45CCN4CC=C[C@@](CC)([C@@H](OC(C)=O)[C@]3(O)C(=O)OC)[C@H]45)C2)C1 (stereo partly drawn) | inactive: -0.743% [at 75.8 µM] | – |

| SMILES | activity change, negative = inhibition | Potency |
| --- | --- | --- |
| Cc1c(C(=O)NCC2CCCN(C)C2)cnn1-c1ncc2c(n1)-c1ccccc1CCC2 (stereo not drawn) | inactive: 7.21% | – |
| CC(O)[C@@H]1NC(=O)[C@H](Cc2ccccc2)NC(=O)[C@H](C(C)O)NC(=O)[C@H](CCCCN)NC(=O)[C@H](Cc2c[nH]c3ccccc23)NC(=O)[C@H](Cc2ccccc2)NC(=O)[C@H](Cc2ccccc2)NC(=O)[C@H](CC(N)=O)NC(=O)[C@H](CCCCN)NC(=O)[C@@H](NC(=O)CNC(=O)[C@H](C)N)CSSC[C@@H](C(=O)O)NC(=O)[C@H](CO)NC1=O (stereo partly drawn) | inactive: 12.5% | – |
| CCCCCCCCNC(C)C(O)c1ccc(SC(C)C)cc1 (stereo not drawn) | inactive: -14.7% | – |
| O=C(c1ccncc1)N1CCC2(CCCN(c3ccncc3)C2)CC1 | inactive: -3.1% | – |
| Cc1cc2nc3c(=O)[nH]c(=O)nc-3n(C[C@H](O)[C@H](O)[C@H](O)COP(=O)(O)OP(=O)(O)OC[C@H]3O[C@@H](n4cnc5c(N)ncnc54)[C@H](O)[C@@H]3O)c2cc1C | inactive: 312% | – |
| CC(=O)CC(c1ccc([N+](=O)[O-])cc1)c1c(O)c2ccccc2oc1=O (stereo not drawn) | inactive: 9.99% [at 75.8 µM] | – |
| O=C(O)c1cc([N+](=O)[O-])ccc1NCCCc1ccccc1 | inactive | – |
| COc1ccccc1-c1cc(NCc2ccccc2)ncn1 | inactive: 11.7% | – |
| O=C(O)c1cc(NCc2cc(O)ccc2O)ccc1O | inactive: -5.76% | – |
| COc1ccc(CNc2cc(-c3ccoc3)ncn2)c(OC)c1 | inactive: 7.51% | – |
| COc1cc2c(cc1OC)[C@@H]1C(=O)c3ccc4c(c3O[C@@H]1CO2)C=CC(C)(C)O4 | inactive: -8.74% | – |
| CCOC(=O)c1ccc(N(C(=O)c2ccccc2)c2ccccc2)cc1 | inactive: -28.4% | – |
| C(=C\c1c[nH]c2ccccc12)/c1cc[n+](C2CCCCC2)cc1 | inactive: 9.19% | – |
| CCCCCN=c1ccn(Cc2ccccc2)c2ccccc12 | inactive: 11.9% | – |
| COc1ccc(CN2[C@@H](CC(=O)O)c3ccc(C(F)(F)F)cc3S2(=O)=O)cc1 | inactive: -9.27% | – |
| CCOC(=O)C1=C(N)Oc2ccc(Br)cc2[C@@H]1[C@@H](C#N)C(=O)OCC | inactive: 0.667% | – |
| Cc1nnc(SCC2=C(C(=O)O)N3C(=O)[C@@H](NC(=O)Cn4cnnn4)[C@H]3SC2)s1 | inactive | – |
| CCCCCCCCCCCCCCCCOCCOCCOCCOCCOCCOCCOCCOCCOCCOCCOCCOCCOCCOCCOCCOCCOCCOCCOCCOCCO | inactive: -18.7% | – |
| Cc1ccc(C(=O)NCCc2nnc3n2CCN(C(=O)c2ccnc(Cl)c2)CC3)cc1 | inactive: 9.7% | – |
| CN(C)c1nc(N)c(C(=O)N=C(N)N)nc1Cl | inactive: 13.7% [at 75.8 µM] | – |
| O=c1[nH]c(=O)n([C@H]2C[C@H](O)[C@@H](CO)O2)cc1C(F)(F)F | inactive: 12.7% | – |
| CN(C)Cc1ccccc1-c1nc(NCc2cccs2)c2ccccc2n1 | inactive: 6.79% | – |

| SMILES | activity change, negative = inhibition | Potency |
| --- | --- | --- |
| CC(=O)OC1CC[C@@]2(C)C(CC[C@@]3(C)C2CC=C2C4CC(C)(C)CC[C@]4(C)CC[C@@]23C)C1(C)C (stereo partly drawn) | inactive: 3.36% | – |
| Cn1cc(-c2nc3cnc(N4CCNCC4)nc3n(Cc3ccc(F)cc3)c2=O)c2ccccc21 | inactive: -16.2% | – |
| COc1ccc(CNc2ccnc(-c3cccc(C#N)c3)n2)c(OC)c1 | inactive: -18.2% | – |
| CC(C)[C@@H](N)C(=O)O | inactive: 5.27% | – |
| O=C(O[C@H]1[C@H](Cc2ccccc2)NS(=O)(=O)[C@H]2CC3C=C[C@]12O3)c1ccc(Br)cc1 | inactive: -10.1% | – |
| Cc1nn(C)c(Cl)c1CN1CCOc2ccc(CN3CCC(Oc4cccnc4)CC3)cc2C1 | inactive: 12.9% | – |
| OC[C@@H](O)COc1cccc2ccccc12 | inactive: -1.51% | – |
| Cc1noc(C)c1-c1cncnc1NC1CC1 | inactive: 19% | – |
| CCCC(=O)O[C@]1(C(=O)CO)CC[C@H]2[C@@H]3CCC4=CC(=O)CC[C@]4(C)[C@H]3[C@@H](O)C[C@@]21C | inactive: 11.6% | – |
| COc1cccc(N2[C@@H](CC(C)=O)c3ccc(/C=C/C(C)=O)cc3S2(=O)=O)c1 | inactive: 5.56% | – |
| CC1(C)[C@H](O[C@H]2O[C@H](C(=O)O)[C@@H](O)[C@H](O)[C@H]2O[C@@H]2O[C@H](C(=O)O)[C@@H](O)[C@H](O)[C@H]2O)CC[C@@]2(C)[C@H]1CC[C@]1(C)[C@H]2C(=O)C=C2[C@H]3C[C@@](C)(C(=O)O)CC[C@]3(C)CC[C@]21C | inactive: 10% | – |
| C[C@@H](N)CCCP(=O)(O)O | inactive: 31.2% | – |
| O=c1[nH]c2cc(Cl)c(Cl)cc2[nH]c1=O | inactive | – |
| COc1ccc(C(=O)N2CCC[C@@]3(CCN(CC(C)C)C3)C2)cc1 | inactive: 18.7% | – |
| N#Cc1cccc(NC(=O)N2CCCC3(CCN(C(=O)c4cccc(F)c4)CC3)C2)c1 | inactive: 8.86% | – |
| CN(Cc1ccco1)c1ncncc1-c1cccc(NS(C)(=O)=O)c1 | inactive: 5.08% | – |
| COc1ccc2nc(S(=O)Cc3ncc(C)c(OC)c3C)[nH]c2c1 (stereo not drawn) | inactive: 7.86% | – |
| Cc1nc2c(O)cccc2c(=O)[nH]1 | inactive: -7.9% | – |
| CCNc1ncc2nc(-c3ccc(F)cc3)c(=O)n(CCc3ccccc3)c2n1 | inactive: 13.1% | – |
| COc1ccc(CN2CCc3nnc(CNC(=O)c4cc(C)oc4C)n3CC2)c2ccccc12 | inactive: 2.26% | – |
| COc1cc(=O)n2c(c1C(=O)NCc1ccc3c(c1)OCO3)CCN(C(=O)c1ccccc1F)CC2 | inactive: 6.16% | – |
| O=S(=O)(c1ccccc1)N1CCC2(CCCN(c3ccccn3)C2)CC1 | inactive: -16% | – |

| SMILES | activity change, negative = inhibition | Potency |
| --- | --- | --- |
| COCCn1c(=O)c(CCc2ccccc2)nc2cnc(OCc3ccccc3)nc21 | inactive: 4.22% | – |
| COCC(=O)Nc1cc(C(=O)NC2Cc3ccccc3C2)cc2nc(-c3cccnc3)n(C)c12 | inactive: 15.6% | – |
| Cc1noc(C)c1-c1nccc(N2CCN(C)CC2)n1 | inactive: -7.22% | – |
| C=C(C)C1CC=C(C(=O)O)CC1 (stereo not drawn) | inactive | – |
| N[C@H](C(=O)O)[C@@H]1C[C@@H]1C(=O)O | inactive | – |
| O=C1[C@H](Cc2ccccc2)NCCCC[C@H](c2ccco2)N1Cc1ccccc1 | inactive: -3.91% | – |
| COc1ccc(C(=O)N2CCC3(CC2)CCN(C(c2ccccc2)c2ccccc2)CC3)cc1 | inactive: -10.8% | – |
| CN(C)CC[C@@H](c1ccc(Br)cc1)c1ccccn1 | inactive | – |
| N#Cc1ccccc1-c1ccc2ncnc(NCc3cccnc3)c2c1 | inactive: -1.83% | – |
| N#CCCn1c(=O)cnc2cnc(N3CCOCC3)nc21 | inactive: 12.9% | – |
| CCC(C)[C@@H](N)C(=O)O (stereo partly drawn) | inactive | – |
| Cc1cc(C(=O)NCc2nnc3n2CCN(Cc2ccc(F)cc2F)CC3)c(C)o1 | inactive: 12.8% | – |
| CC(=O)OCC(=O)[C@@]1(O)[C@H](OC(C)=O)C[C@H]2[C@@H]3CCC4=CC(=O)C=C[C@]4(C)[C@@]3(F)[C@@H](O)C[C@@]21C | inactive: 26% | – |
| COCC1CCCN(Cc2ccc3c(c2)CN(C(=O)c2cnn(C(C)C)c2)CCO3)C1 (stereo not drawn) | inactive: 14.9% | – |
| O=S1(=O)CCOC[C@H](CC2CCCCC2)N1Cc1ccc(F)cc1 | inactive: 4.77% | – |
| Cc1ccc2c(c1)CN(CCC(=O)NCc1cc(C)n(C)n1)CC(C)O2 (stereo not drawn) | inactive: 5.77% | – |
| Clc1cccc(Nc2nnc(-c3ccccc3)c3ccccc23)c1 | inactive | – |
| COc1ccc2c(c1)-c1nc(-n3ncc(C(=O)NCc4cccnc4)c3C3CC3)ncc1CC2 | inactive: 12.3% | – |
| CNC(=O)[C@H]1O[C@@H](n2cnc3c(NCc4ccc(I)cc4)nc(Cl)nc32)[C@H](O)[C@@H]1O | inactive: 3.45% [at 75.8 µM] | – |
| CCNc1ncc2nc(C)c(=O)n(CCc3ccccc3)c2n1 | inactive: 13.3% | – |
| N[C@H](Cn1ccc(=O)n(Cc2ccccc2C(=O)O)c1=O)C(=O)O | inactive: 7.97% | – |
| CC(C)Cn1cnc2c(N)nc3ccccc3c21 | inactive: -9.49% | – |
